# Some of the results follow.
# Legend:
# Assay in all cases: glycan array binding signal (z-score within array); higher = stronger binding
# Conditions in all cases: glycan notation: IUPAC condensed, linker removed
# Gal6S(b1-4)Glc = biological target: Gal6S(b1-4)Glc
# Method in brief: (§1)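 Glycan array binding is given as a within-array Z-score, which can be read as non-binding when negative. The arrays, 3228 of them, came from the Consortium for Functional Glycomics database and were retained only where the protein sequence was available. Z-scores were averaged across arrays of the same protein sequence at different concentrations or buffers and across linkers.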
# Gal6S(b1-4)Glc6S = biological target: Gal6S(b1-4)Glc6S
# Method in brief: as §1
# Gal6S(b1-4)GlcNAc = biological target: Gal6S(b1-4)GlcNAc
# Method in brief: as §1
# Gal6S(b1-4)GlcNAc6S = biological target: Gal6S(b1-4)GlcNAc6S
# Method in brief: as §1
# GalNAc(a1-3)Gal = biological target: GalNAc(a1-3)Gal
# Method in brief: as §1
# GalNAc(a1-3)GalNAc = biological target: GalNAc(a1-3)GalNAc
# Method in brief: as §1
# GalNAc(b1-3)Gal = biological target: GalNAc(b1-3)Gal
# Method in brief: as §1
# [1] = biological target: GalNAc(b1-3)Gal(a1-4)Gal(b1-4)GlcNAc
# Method in brief: as §1
# GalNAc(b1-3)GalNAc = biological target: GalNAc(b1-3)GalNAc
# Method in brief: as §1
# GalNAc(b1-4)GlcNAc = biological target: GalNAc(b1-4)GlcNAc
# Method in brief: as §1
# Glc(a1-4)Glc = biological target: Glc(a1-4)Glc
# Method in brief: as §1
# Glc(a1-6)Glc(a1-6)Glc = biological target: Glc(a1-6)Glc(a1-6)Glc
# Method in brief: as §1
# Glc(b1-4)Glc = biological target: Glc(b1-4)Glc
# Method in brief: as §1
# Glc(b1-6)Glc = biological target: Glc(b1-6)Glc
# Method in brief: as §1
# GlcA(b1-3)Gal = biological target: GlcA(b1-3)Gal
# Method in brief: as §1
# GlcA(b1-3)GlcNAc = biological target: GlcA(b1-3)GlcNAc
# Method in brief: as §1
# GlcA(b1-6)Gal = biological target: GlcA(b1-6)Gal
# Method in brief: as §1
# [2] = biological target: GlcNAc(a1-3)Gal(b1-4)GlcNAc
# Method in brief: as §1
# [3] = biological target: GlcNAc(a1-6)Gal(b1-4)GlcNAc
# Method in brief: as §1
# [4] = biological target: GlcNAc(b1-2)Gal(b1-3)GalNAc
# Method in brief: as §1
# [5] = biological target: GlcNAc(b1-2)Man(a1-3)[GlcNAc(b1-2)Man(a1-6)]Man(b1-4)GlcNAc(b1-4)GlcNAc
# Method in brief: as §1
# GlcNAc(b1-3)Gal = biological target: GlcNAc(b1-3)Gal
# Method in brief: as §1
# [6] = biological target: GlcNAc(b1-3)Gal(b1-3)GalNAc
# Method in brief: as §1
# GlcNAc(b1-3)Gal(b1-4)Glc = biological target: GlcNAc(b1-3)Gal(b1-4)Glc
# Method in brief: as §1
# [7] = biological target: GlcNAc(b1-3)Gal(b1-4)GlcNAc
# Method in brief: as §1
# [8] = biological target: GlcNAc(b1-3)Gal(b1-4)GlcNAc(b1-3)Gal(b1-4)GlcNAc
# Method in brief: as §1
# GlcNAc(b1-3)GalNAc = biological target: GlcNAc(b1-3)GalNAc
# Method in brief: as §1
# GlcNAc(b1-3)Man = biological target: GlcNAc(b1-3)Man
# Method in brief: as §1
# [9] = biological target: GlcNAc(b1-3)[GlcNAc(b1-4)][GlcNAc(b1-6)]GlcNAc
# Method in brief: as §1
# [10] = biological target: GlcNAc(b1-3)[GlcNAc(b1-6)]Gal(b1-4)GlcNAc
# Method in brief: as §1
# [11] = biological target: GlcNAc(b1-3)[GlcNAc(b1-6)]GalNAc
# Method in brief: as §1
# [12] = biological target: GlcNAc(b1-4)Gal(b1-4)GlcNAc
# Method in brief: as §1
# GlcNAc(b1-4)GlcNAc = biological target: GlcNAc(b1-4)GlcNAc
# Method in brief: as §1
# [13] = biological target: GlcNAc(b1-4)GlcNAc(b1-4)GlcNAc
# Method in brief: as §1
# [14] = biological target: GlcNAc(b1-4)GlcNAc(b1-4)GlcNAc(b1-4)GlcNAc(b1-4)GlcNAc
# Method in brief: as §1
# [15] = biological target: GlcNAc(b1-4)GlcNAc(b1-4)GlcNAc(b1-4)GlcNAc(b1-4)GlcNAc(b1-4)GlcNAc
# Method in brief: as §1
# [16] = biological target: GlcNAc(b1-4)[GlcNAc(b1-6)]GalNAc
# Method in brief: as §1
# [17] = biological target: GlcNAc(b1-6)Gal(b1-4)GlcNAc
# Method in brief: as §1
binder,measurement,setting,value
"MUC1-SEA-mFcIgG2a (Homo sapiens), P15941 (SEA domain only) (protein) DAAQPARRAVRSSSELTSEQKLISEEDLSRLVHNGTSARATTTPASKSTPFSIPSHHSDTPTTLASHSTKTDASSTHHSTVPPLTSSNHSTSPQLSTGVSFFFLSFHISNLQFNSSLEDPSTDYYQELQRDISEMFLQIYKQGGFLGLSNIKFRPGSVVVQLTLAFREGTINVHDVETQFNQYKTEAASRYNLTISDASVSDVPFPFSAQSGSDDDDKALEPRGPTIKPCPPCKCPAPNLLGGPSVFIFPPKIKDVLMISLSPIVTCVVVDVSEDDPDVQISWFVNNVEVHTAQTQTHREDYNSTLRVVSALPIQHQDWMSGKEFKCKVNNKDLPAPIERTISKPKGSVRAPQVYVLPPPEEEMTKKQVTLTCMVTDFMPEDIYVEWTNNGKTELNYKNTEPVLDSDGSYFMYSKLRVEKKNWVERNSYSCSVVHEGLHNHHTTKSFSRTPGKHHHHH",glycan array binding signal (z-score),Gal6S(b1-4)Glc,0.644
same,glycan array binding signal (z-score),Gal6S(b1-4)Glc6S,2.14
same,glycan array binding signal (z-score),Gal6S(b1-4)GlcNAc,-0.439
same,glycan array binding signal (z-score),Gal6S(b1-4)GlcNAc6S,0.906
same,glycan array binding signal (z-score),GalNAc(a1-3)Gal,0.321
same,glycan array binding signal (z-score),GalNAc(a1-3)GalNAc,-0.233
same,glycan array binding signal (z-score),GalNAc(b1-3)Gal,-0.37
same,glycan array binding signal (z-score),[1],-0.118
same,glycan array binding signal (z-score),GalNAc(b1-3)GalNAc,-0.037
same,glycan array binding signal (z-score),GalNAc(b1-4)GlcNAc,-0.184
same,glycan array binding signal (z-score),Glc(a1-4)Glc,-0.359
same,glycan array binding signal (z-score),Glc(a1-6)Glc(a1-6)Glc,-0.276
same,glycan array binding signal (z-score),Glc(b1-4)Glc,-0.267
same,glycan array binding signal (z-score),Glc(b1-6)Glc,0.282
same,glycan array binding signal (z-score),GlcA(b1-3)Gal,0.184
same,glycan array binding signal (z-score),GlcA(b1-3)GlcNAc,-0.276
same,glycan array binding signal (z-score),GlcA(b1-6)Gal,0.092
same,glycan array binding signal (z-score),[2],-0.13
same,glycan array binding signal (z-score),[3],-0.14
same,glycan array binding signal (z-score),[4],-0.321
same,glycan array binding signal (z-score),[5],-0.274
same,glycan array binding signal (z-score),GlcNAc(b1-3)Gal,-0.151
same,glycan array binding signal (z-score),[6],0.025
same,glycan array binding signal (z-score),GlcNAc(b1-3)Gal(b1-4)Glc,0.003
same,glycan array binding signal (z-score),[7],-0.309
same,glycan array binding signal (z-score),[8],-0.388
same,glycan array binding signal (z-score),GlcNAc(b1-3)GalNAc,-0.033
same,glycan array binding signal (z-score),GlcNAc(b1-3)Man,0.606
same,glycan array binding signal (z-score),[9],-0.427
same,glycan array binding signal (z-score),[10],-0.582
same,glycan array binding signal (z-score),[11],-0.035
same,glycan array binding signal (z-score),[12],-0.565
same,glycan array binding signal (z-score),GlcNAc(b1-4)GlcNAc,-0.16
same,glycan array binding signal (z-score),[13],-0.087
same,glycan array binding signal (z-score),[14],-0.175
same,glycan array binding signal (z-score),[15],-0.254
same,glycan array binding signal (z-score),[16],-0.223
same,glycan array binding signal (z-score),[17],-0.174

# — the supplement of paper PMC8728848
